Patent US20210070868A1 (published 2021)

T1: wild-type decoyMET (extracellular portion of human HGFR/MET: SEMA, PSI, IPT-1 to IPT-4) (UniProt P08581 25-932)
T1 chain: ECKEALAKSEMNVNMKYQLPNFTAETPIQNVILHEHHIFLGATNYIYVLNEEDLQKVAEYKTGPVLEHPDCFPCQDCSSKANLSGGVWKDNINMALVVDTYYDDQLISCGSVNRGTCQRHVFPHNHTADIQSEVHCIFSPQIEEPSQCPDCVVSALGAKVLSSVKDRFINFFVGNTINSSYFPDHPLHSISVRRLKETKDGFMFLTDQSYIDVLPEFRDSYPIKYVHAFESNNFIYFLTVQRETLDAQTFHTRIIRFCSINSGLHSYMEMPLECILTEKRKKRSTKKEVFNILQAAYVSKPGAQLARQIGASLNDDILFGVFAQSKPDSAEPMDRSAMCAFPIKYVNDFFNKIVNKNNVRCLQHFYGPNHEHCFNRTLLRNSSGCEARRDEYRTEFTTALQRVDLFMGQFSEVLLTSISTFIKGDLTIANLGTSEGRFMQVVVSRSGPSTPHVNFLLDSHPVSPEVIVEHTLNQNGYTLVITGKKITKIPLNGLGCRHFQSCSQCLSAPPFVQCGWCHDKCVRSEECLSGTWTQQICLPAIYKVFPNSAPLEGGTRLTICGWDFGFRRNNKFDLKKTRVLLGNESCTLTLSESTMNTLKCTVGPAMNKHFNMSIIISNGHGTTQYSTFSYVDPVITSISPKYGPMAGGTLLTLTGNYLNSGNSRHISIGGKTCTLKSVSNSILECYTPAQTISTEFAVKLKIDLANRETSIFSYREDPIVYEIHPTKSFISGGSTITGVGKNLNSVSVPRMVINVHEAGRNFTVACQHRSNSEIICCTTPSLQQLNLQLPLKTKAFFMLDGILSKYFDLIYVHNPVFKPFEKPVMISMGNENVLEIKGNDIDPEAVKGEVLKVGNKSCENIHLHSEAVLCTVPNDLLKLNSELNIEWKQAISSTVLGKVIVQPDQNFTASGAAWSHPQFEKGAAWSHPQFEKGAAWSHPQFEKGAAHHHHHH

B1: fusion protein with decoyMET^K842E at the N-terminal, linker L134 and scMvDN30 at the C-terminal (other)
chain: ECKEALAKSEMNVNMKYQLPNFTAETPIQNVILHEHHIFLGATNYIYVLNEEDLQKVAEYKTGPVLEHPDCFPCQDCSSKANLSGGVWKDNINMALVVDTYYDDQLISCGSVNRGTCQRHVFPHNHTADIQSEVHCIFSPQIEEPSQCPDCVVSALGAKVLSSVKDRFINFFVGNTINSSYFPDHPLHSISVRRLKETKDGFMFLTDQSYIDVLPEFRDSYPIKYVHAFESNNFIYFLTVQRETLDAQTFHTRIIRFCSINSGLHSYMEMPLECILTEKRKKRSTKKEVFNILQAAYVSKPGAQLARQIGASLNDDILFGVFAQSKPDSAEPMDRSAMCAFPIKYVNDFFNKIVNKNNVRCLQHFYGPNHEHCFNRTLLRNSSGCEARRDEYRTEFTTALQRVDLFMGQFSEVLLTSISTFIKGDLTIANLGTSEGRFMQVVVSRSGPSTPHVNFLLDSHPVSPEVIVEHTLNQNGYTLVITGKKITKIPLNGLGCRHFQSCSQCLSAPPFVQCGWCHDKCVRSEECLSGTWTQQICLPAIYKVFPNSAPLEGGTRLTICGWDFGFRRNNKFDLKKTRVLLGNESCTLTLSESTMNTLKCTVGPAMNKHFNMSIIISNGHGTTQYSTFSYVDPVITSISPKYGPMAGGTLLTLTGNYLNSGNSRHISIGGKTCTLKSVSNSILECYTPAQTISTEFAVKLKIDLANRETSIFSYREDPIVYEIHPTKSFISGGSTITGVGKNLNSVSVPRMVINVHEAGRNFTVACQHRSNSEIICCTTPSLQQLNLQLPLKTKAFFMLDGILSKYFDLIYVHNPVFEPFEKPVMISMGNENVLEIKGNDIDPEAVKGEVLKVGNKSCENIHLHSEAVLCTVPNDLLKLNSELNIEWKQAISSTVLGKVIVQPDQNFTGGGGSGGGGSGGGGSAEAWYNLGNAYYKQGDYQKAIEYYQKALELDPNNAEAWYNLGNAYYKQGDYQKAIEYYQKALELDPNNAEAWYNLGNAYYKQGDYQKAIEDYQKALELDPNNGGGGSGGGGSGGGGSGGDIVLTQSPASLAVSLGQRATISCKASQSVDYDGGSYMSWFQQRPGQPPKLLISAASNLESGIPARFSGSGSGTDFTLNIHPVEEEDVATYYCQQSYEDPLTFGAGTKVEIKRTVAAPSVFIFPPSDEQLKSGTASVVCLLNNFYPREAKVQWKVDNALQSGNSQESVTEQDSKDSTYSLSSTLTLSKADYEKHKVYACEVTHQGLSSPVTKSFNRGECGGSSGSGSGSTGTSSSGTGTSAGTTGTSASTSGSGSGGGGGSGGGGSAGGTATAGASSGSVQLQQPGTELVKPGASVKLSCKASGYTFTSYWIHWVKQRPGQGLEWIGEINPSSGRTNYNEKFKNKVTVTVDKSSTTAYMQLSNLTSEDSAVYYCASRGYWGQGTTLTVSSASTKGPSVFPLAPSSKSTSGGTAALGCLVKDYFPEPVTVSWNSGALTSGVHTFPAVLQSSGLYSLSSVVTVPSSSLGTQTYICNVNHKPSNTKVDKKVEPKSCDKTHTTRGAAWSHPQFEKGAAWSHPQFEKGAAWSHPQFEKGAAHHHHHH
B2: fusion protein with scMvDN30 at the N-terminal, linker L134 and decoyMET^K842E at the C-terminal (other)
chain: DIVLTQSPASLAVSLGQRATISCKASQSVDYDGGSYMSWFQQRPGQPPKLLISAASNLESGIPARFSGSGSGTDFTLNIHPVEEEDVATYYCQQSYEDPLTFGAGTKVEIKRTVAAPSVFIFPPSDEQLKSGTASVVCLLNNFYPREAKVQWKVDNALQSGNSQESVTEQDSKDSTYSLSSTLTLSKADYEKHKVYACEVTHQGLSSPVTKSFNRGECGGSSGSGSGSTGTSSSGTGTSAGTTGTSASTSGSGSGGGGGSGGGGSAGGTATAGASSGSVQLQQPGTELVKPGASVKLSCKASGYTFTSYWIHWVKQRPGQGLEWIGEINPSSGRTNYNEKFKNKVTVTVDKSSTTAYMQLSNLTSEDSAVYYCASRGYWGQGTTLTVSSASTKGPSVFPLAPSSKSTSGGTAALGCLVKDYFPEPVTVSWNSGALTSGVHTFPAVLQSSGLYSLSSVVTVPSSSLGTQTYICNVNHKPSNTKVDKKVEPKSCDKTHTGGGGSGGGGSGGGGSAEAWYNLGNAYYKQGDYQKAIEYYQKALELDPNNAEAWYNLGNAYYKQGDYQKAIEYYQKALELDPNNAEAWYNLGNAYYKQGDYQKAIEDYQKALELDPNNGGGGSGGGGSGGGGSGGECKEALAKSEMNVNMKYQLPNFTAETPIQNVILHEHHIFLGATNYIYVLNEEDLQKVAEYKTGPVLEHPDCFPCQDCSSKANLSGGVWKDNINMALVVDTYYDDQLISCGSVNRGTCQRHVFPHNHTADIQSEVHCIFSPQIEEPSQCPDCVVSALGAKVLSSVKDRFINFFVGNTINSSYFPDHPLHSISVRRLKETKDGFMFLTDQSYIDVLPEFRDSYPIKYVHAFESNNFIYFLTVQRETLDAQTFHTRIIRFCSINSGLHSYMEMPLECILTEKRKKRSTKKEVFNILQAAYVSKPGAQLARQIGASLNDDILFGVFAQSKPDSAEPMDRSAMCAFPIKYVNDFFNKIVNKNNVRCLQHFYGPNHEHCFNRTLLRNSSGCEARRDEYRTEFTTALQRVDLFMGQFSEVLLTSISTFIKGDLTIANLGTSEGRFMQVVVSRSGPSTPHVNFLLDSHPVSPEVIVEHTLNQNGYTLVITGKKITKIPLNGLGCRHFQSCSQCLSAPPFVQCGWCHDKCVRSEECLSGTWTQQICLPAIYKVFPNSAPLEGGTRLTICGWDFGFRRNNKFDLKKTRVLLGNESCTLTLSESTMNTLKCTVGPAMNKHFNMSIIISNGHGTTQYSTFSYVDPVITSISPKYGPMAGGTLLTLTGNYLNSGNSRHISIGGKTCTLKSVSNSILECYTPAQTISTEFAVKLKIDLANRETSIFSYREDPIVYEIHPTKSFISGGSTITGVGKNLNSVSVPRMVINVHEAGRNFTVACQHRSNSEIICCTTPSLQQLNLQLPLKTKAFFMLDGILSKYFDLIYVHNPVFEPFEKPVMISMGNENVLEIKGNDIDPEAVKGEVLKVGNKSCENIHLHSEAVLCTVPNDLLKLNSELNIEWKQAISSTVLGKVIVQPDQNFTASGAAWSHPQFEKGAAWSHPQFEKGAAWSHPQFEKGAAHHHHHH

Legend:
[1] = molecular target: T1, wild-type decoyMET (extracellular …); experiment: ELISA
[2] = molecular target: Hepatocyte Growth Factor (HGF) (UniProt P14210 32-728); experiment: ELISA
Chain of UniProt P14210 (P14210 32-728): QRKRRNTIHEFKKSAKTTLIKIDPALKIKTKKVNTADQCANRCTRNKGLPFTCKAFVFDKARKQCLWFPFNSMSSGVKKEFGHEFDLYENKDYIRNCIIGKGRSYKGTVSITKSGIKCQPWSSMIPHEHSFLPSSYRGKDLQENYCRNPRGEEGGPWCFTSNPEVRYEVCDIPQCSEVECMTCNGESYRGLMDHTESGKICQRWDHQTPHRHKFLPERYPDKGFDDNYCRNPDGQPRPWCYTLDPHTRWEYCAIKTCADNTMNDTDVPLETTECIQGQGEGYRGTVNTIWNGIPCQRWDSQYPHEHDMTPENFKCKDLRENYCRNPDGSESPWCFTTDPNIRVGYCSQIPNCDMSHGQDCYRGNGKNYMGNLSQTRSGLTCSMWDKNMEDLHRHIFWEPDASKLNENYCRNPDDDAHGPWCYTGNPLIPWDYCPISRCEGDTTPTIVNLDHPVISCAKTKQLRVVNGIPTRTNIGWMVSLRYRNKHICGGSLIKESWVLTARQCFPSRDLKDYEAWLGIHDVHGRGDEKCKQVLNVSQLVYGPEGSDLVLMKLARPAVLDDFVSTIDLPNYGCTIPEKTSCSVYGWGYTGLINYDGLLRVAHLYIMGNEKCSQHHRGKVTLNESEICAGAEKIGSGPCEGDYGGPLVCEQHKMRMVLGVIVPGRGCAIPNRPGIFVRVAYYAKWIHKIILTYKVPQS

Row | Binder | Kd [1] [nM] | Kd [2] [nM]
1 | B1 | 39.6 | 0.125
2 | B2 | 7.68 | 0.374
